Measurements published in PubChem BioAssay AID485367 (National Center for Advancing Translational Sciences (NCATS), 2010).
About 560 (0.17%) of roughly 330,000 compounds were called active. The inconclusive results got no clear call from the source; some entries with a clear call stand among them for comparison. The call rests on the fitted dose curve; in most records, active means well fitted inhibition curve with a large enough effect; inconclusive means small, poorly fitted or top-dose-only effect, or effect the other way; inactive means flat fitted curve, though single readings scatter. No potency is given beside an inconclusive call; the fits are too rough.

Biological target: ATP-dependent 6-phosphofructokinase (Trypanosoma brucei brucei) (UniProt O15648)
Chain of UniProt O15648 (O15648 whole entry, looked up): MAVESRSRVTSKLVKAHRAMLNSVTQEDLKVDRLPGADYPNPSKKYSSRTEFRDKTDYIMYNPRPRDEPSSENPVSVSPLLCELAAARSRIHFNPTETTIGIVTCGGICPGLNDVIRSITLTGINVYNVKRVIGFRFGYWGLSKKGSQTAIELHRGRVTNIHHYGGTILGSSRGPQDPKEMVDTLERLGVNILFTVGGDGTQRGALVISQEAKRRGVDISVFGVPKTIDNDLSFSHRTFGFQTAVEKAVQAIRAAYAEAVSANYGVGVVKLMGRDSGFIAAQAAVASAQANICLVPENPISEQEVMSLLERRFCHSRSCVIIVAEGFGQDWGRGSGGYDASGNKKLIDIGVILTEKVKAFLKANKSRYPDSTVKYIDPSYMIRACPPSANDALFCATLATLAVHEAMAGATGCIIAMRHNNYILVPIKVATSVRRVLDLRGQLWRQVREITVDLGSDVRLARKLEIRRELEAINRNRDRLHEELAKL
Assay: qHTS Assay to Find Inhibitors of T. brucei phosphofructokinase; further: nearly all actives have a fitted effect of over 60% in size
Settings: T. brucei PFK, ADP-Glo luminescence; series mostly up to 57.5 µM
Method in brief: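 In TEA buffer at pH 8.0 with 5 mM MgCl2, enzyme (1.25 nM) converted F6P (0.5 mM) and ATP (0.1 mM) for 45 min at room temperature. ADP product was read by luciferase luminescence.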
Potency means the concentration at half of the fitted maximal effect; tags describe the fitted curve by direction and shape.

SMILES	Potency
Cc1ccc(S(=O)(=O)NCc2ccc(C(=O)N3CCN(c4ccccn4)CC3)cc2)cc1	inactive
Cc1[nH][nH]c(=O)c1C(c1ccc(-c2ccccc2C(=O)O)o1)c1c(C)[nH][nH]c1=O	inconclusive [falling, single point]
O=C(CSc1nnc2scc(-c3ccc(Cl)cc3)n12)NCc1ccc2c(c1)OCO2	inconclusive [activator, full curve, poor fit]
O=C1/C(=C\c2cccc([N+](=O)[O-])c2O)SC(=S)N1Cc1ccccc1	inconclusive [falling, partial curve]
Cc1cc(C)c(S(=O)(=O)NCCSCc2ccco2)c(C)c1	inconclusive [falling, single point]
CC(C)NC(=O)c1ccc2c3n(nc2c1)-c1ccccc1CO3	inconclusive [falling, partial curve, poor fit]
CN1CCN(Cc2c(O)ccc3cc(-c4ccccn4)c(=O)oc23)CC1	inactive
OC(COCC(F)(F)C(F)(F)C(F)(F)C(F)F)Cn1c2ccc(Cl)cc2c2cc(Cl)ccc21 (stereo not given)	inactive
COc1ccc(-c2ccn(-c3cccc(F)n3)n2)cc1	inactive
Cc1cc(C(=O)N/N=C/c2ccc(O)c(O)c2O)c(C)n1-c1ccccc1	inconclusive [falling, single point]
Cc1c(Cl)c(C(F)(F)F)nn1CC(=O)NCc1ccco1	inconclusive [falling, partial curve]
O=C(c1cc(COc2ccc(F)c(F)c2)on1)N1CCN(C2CCCCC2)C(=O)C1	inactive
Cc1ccc(C2=NN=C(NC(=O)CSc3nncn3C)SC2)cc1	inconclusive [falling, partial curve]
COc1cccc(-c2nc(CS(=O)(=O)CC(=O)Nc3c(C)cccc3C)c(C)o2)c1	inactive
O=C(Nc1ccc(F)cc1F)Nc1ccc(F)cc1F	inconclusive [falling, single point]
Cn1c(N)c(C(=O)Nc2ccc(-c3ccccc3)cc2)sc1=S	inconclusive [falling, single point]
COC(=O)CSC1=C(C#N)C(=O)NC(c2ccccc2)S1 (stereo not given)	inconclusive [falling, single point]
N#CC1=C(N)NC(=S)C(C(N)=O)C1c1ccccc1F (stereo not given)	inactive
Cn1c(N)c(C(=O)COC(=O)c2cc(S(=O)(=O)N3CCOCC3)ccc2F)c(=O)n(C)c1=O	inconclusive [falling, single point]
COc1cc(C(=O)NCCOc2cc(C)cc(C)c2)cc(OC)c1OC	inactive
O=C(NCCS(=O)(=O)N1CCN(c2cccc(Cl)c2)CC1)C1CCCC1	inconclusive [falling, single point]
Nc1ccc2ncccc2c1N	inconclusive [falling, partial curve]
Cc1ccc(NC(=O)CNc2ccc(Cl)c(Cl)c2)cc1S(=O)(=O)N(C)C	inconclusive [falling, single point]
CC(C(=O)NC1=NCCS1)N1C(=O)c2ccccc2C1=O (stereo not given)	inconclusive [falling, single point]

SMILES	Potency
COc1ccccc1OCc1nnc(SCC(=O)NCc2ccco2)n1Cc1ccco1	inconclusive [falling, partial curve]
CSc1ccc(C(c2c(C)[nH][nH]c2=O)c2c(C)[nH][nH]c2=O)cc1	active: 15.1 µM
CSc1ccc(S(=O)(=O)NCC(=O)OCC(=O)NCc2cccs2)cc1[N+](=O)[O-]	inconclusive [falling, single point]
Cc1cc(/C=N/n2c(COc3ccccc3)nc3ccccc3c2=O)c(O)c([N+](=O)[O-])c1	inactive
O=C1NC(=Nc2ccccc2)S/C1=C\C=C\c1ccco1	active: 7.57 µM
CC1(C)Cc2c(cnn2-c2ccccc2)-c2c1c1ccccc1n2CC(O)CBr (stereo not given)	inactive
O=c1ccc2c(-c3ccccc3)c3ccc(O)cc3oc-2c1	active: 12 µM
O=C1N/C(=C/c2ccc(N3CCOCC3)o2)C(=O)N1c1ccccc1	inconclusive [falling, full curve]
O=C(NNC(=S)Nc1ccc(Cl)c(Cl)c1)c1ccccn1	inconclusive [falling, partial curve, poor fit]
O=C(CSc1ccc(F)cc1)Nc1ccc2c(c1)C(=O)NC2=O	inconclusive [falling, partial curve]
O=C(C/C=N\OCc1ccc(Cl)cc1Cl)Nc1ccccc1	inconclusive [falling, single point]
O=S(=O)(/N=S1/CC=CCN1S(=O)(=O)c1ccccc1)c1ccccc1 (stereo not given)	inconclusive [falling, single point]
NC(=O)CNCCC(c1ccccc1)c1ccccc1	inconclusive [falling, single point]
O=C(NNc1ccc([N+](=O)[O-])cc1)c1ccccc1Cl	inconclusive [falling, partial curve]
Cc1ccc2c(c1)C(N1CCCC1=O)CC(c1ccco1)N2 (stereo not given)	inconclusive [falling, single point]
COc1ccc(Br)cc1/C=C(\C(=O)O)c1ccc(S(=O)(=O)N2CCCC2)s1	inconclusive [falling, single point]
Fc1cccc(Cl)c1CNC(c1ccccc1)c1ccccc1	inactive
NS(=O)(=O)c1ccc(NC(=S)NC2CCCCC2)cc1	inconclusive [falling, partial curve]
O=C(NCCc1c[nH]c2ccccc12)c1ccc2[nH]c(=O)c(=O)[nH]c2c1	inconclusive [falling, partial curve]
CCC(C)c1ccc(NC(=S)Nc2ccc(OC)cc2C)cc1 (stereo not given)	inconclusive [falling, full curve, poor fit]
CCCCCC#CCC#CCC#CCC#CCCCC(=O)O	inconclusive [falling, partial curve]
COc1ccc(N2CC(O)=C(c3nc(-c4ccc(Br)cc4)cs3)C2=N)cc1	inactive
O=C(COc1ccc(/C=N/NC(=O)c2ccc(O)cc2)cc1)Nc1ccc([N+](=O)[O-])cc1	inconclusive [falling, single point]
N#Cc1c(N)sc2c1CCN(C(=O)OCc1ccccc1)C2	inconclusive [falling, single point]

SMILES	Potency
Clc1cccc(NCc2nnc(SCc3ccccc3)o2)c1	inconclusive [falling, single point]
Cc1cccc(N2CCN(S(=O)(=O)c3ccc4c(c3)C(C)(C)C(=O)N4C)CC2)c1C	inconclusive [falling, single point]
CC(=O)C(C(C)=O)C1(O)C(=O)c2ccccc2C1=O	inconclusive [activator, partial curve]
O=[N+]([O-])c1ccc2nc(SCc3cn4cc(Cl)ccc4n3)[nH]c2c1	inconclusive [falling, single point]
Cc1nnc(NC(=O)COc2ccc3c(C)cc(=O)oc3c2)s1	inconclusive [falling, single point]
CCN(CC)c1ccc2c(C)cc(=O)oc2c1	inactive
O=C(NC1CCCC1)c1ccc(CSc2nc3ccncc3n2Cc2ccc(F)cc2)cc1	inconclusive [falling, partial curve]
Cc1noc(NS(=O)(=O)c2ccc(NC(=O)Cc3ccc([N+](=O)[O-])cc3)cc2)c1C	active: 6.01 µM
CCC(=O)Nc1ccc2ccccc2c1	inactive
Cc1ccc(C)c(NC(=S)c2ccc3ccccc3n2)c1	inactive
CCOC(=O)COn1c(=O)c(-c2ccc(C)cc2)[n+]([O-])c2ccccc21	inactive
CCOc1cc(/C=N/NC(=O)c2ccc(-c3csc(Nc4ccc(C)cc4)n3)cc2)ccc1OCC(=O)O	inconclusive [falling, single point]
O=c1c(-c2nc3ccccc3s2)cccn1Cc1ccc(Cl)c(Cl)c1	inconclusive [falling, partial curve]
CCCn1c(=O)c(C(=O)Nc2ccccc2C)c(O)c2ccccc21	inconclusive [falling, single point]
O=C(Nc1ccc(S(=O)(=O)Nc2cnc3ccccc3n2)cc1)c1ccc(Cl)c([N+](=O)[O-])c1	inconclusive [falling, single point]
CC(=O)OCCNc1cc(Sc2nc3ccccc3[nH]2)c2nonc2c1[N+](=O)[O-]	inconclusive [falling, full curve]
O=C(COc1ccccc1[N+](=O)[O-])Nc1ccc(N2CCN(C(=O)c3cccs3)CC2)cc1	inactive
N#CCCSc1ccccc1NC(=O)c1ccc(S(=O)(=O)N2CCCC2)cc1	inactive
O=C(Nc1ccc2c(c1)OCCO2)c1ccc(Cl)c(Cl)c1	inconclusive [falling, single point]
O=[N+]([O-])c1ccc(/C=N/NC(=S)Nc2ccccc2)o1	inconclusive [falling, full curve]
CC(C)NC[C@@H](O)c1ccc(O)c(O)c1	inconclusive [falling, single point]
CCN(CC(=O)Nc1ccc(NC(C)=O)cc1)Cc1c(O)ccc2cc(Br)ccc12	inactive
